From publication PMC4354016, “Centromeric binding and activity of Protein Phosphatase 4” (Nature Communications, 2015)
Results are given in words; binding and its absence hold for the method and conditions named. In cells and extracts the contact can be indirect. Some results given as binding are weak or reduced against the parent protein; the word gives no strength. Where a sequence is shown, tags or fusion partners need not be part of it.

T1: GST-tagged Flfl^N (aa 1–361) (Drosophila melanogaster) (UniProt Q9VFS5)
T1 sequence: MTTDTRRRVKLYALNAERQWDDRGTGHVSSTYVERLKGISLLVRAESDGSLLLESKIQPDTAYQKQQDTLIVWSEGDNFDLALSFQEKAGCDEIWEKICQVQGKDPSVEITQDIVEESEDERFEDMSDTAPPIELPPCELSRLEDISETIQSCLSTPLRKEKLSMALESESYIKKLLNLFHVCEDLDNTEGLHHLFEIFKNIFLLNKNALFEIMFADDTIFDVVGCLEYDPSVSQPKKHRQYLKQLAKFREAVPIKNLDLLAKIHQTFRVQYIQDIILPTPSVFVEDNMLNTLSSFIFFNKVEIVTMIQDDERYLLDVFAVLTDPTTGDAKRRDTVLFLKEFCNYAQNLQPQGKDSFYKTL

T2: GST-tagged Flfl^169–361 (aa 169–361) (Drosophila melanogaster) (UniProt Q9VFS5)
T2 sequence: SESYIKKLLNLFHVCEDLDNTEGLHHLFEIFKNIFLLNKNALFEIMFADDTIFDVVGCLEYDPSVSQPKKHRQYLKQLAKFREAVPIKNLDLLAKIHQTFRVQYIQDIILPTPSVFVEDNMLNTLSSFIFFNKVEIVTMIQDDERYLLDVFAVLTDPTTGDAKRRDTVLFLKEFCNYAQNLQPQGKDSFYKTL

T3: GST-tagged Flfl^1–168 (aa 1–168) (Drosophila melanogaster) (UniProt Q9VFS5)
T3 sequence: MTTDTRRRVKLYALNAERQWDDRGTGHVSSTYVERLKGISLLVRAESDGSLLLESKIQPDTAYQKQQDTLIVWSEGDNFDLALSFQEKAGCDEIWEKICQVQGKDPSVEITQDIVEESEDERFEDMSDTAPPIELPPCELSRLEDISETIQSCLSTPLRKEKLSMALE

T4: GST-tagged Flfl^M (aa 362–666) (Drosophila melanogaster) (UniProt Q9VFS5)
T4 sequence: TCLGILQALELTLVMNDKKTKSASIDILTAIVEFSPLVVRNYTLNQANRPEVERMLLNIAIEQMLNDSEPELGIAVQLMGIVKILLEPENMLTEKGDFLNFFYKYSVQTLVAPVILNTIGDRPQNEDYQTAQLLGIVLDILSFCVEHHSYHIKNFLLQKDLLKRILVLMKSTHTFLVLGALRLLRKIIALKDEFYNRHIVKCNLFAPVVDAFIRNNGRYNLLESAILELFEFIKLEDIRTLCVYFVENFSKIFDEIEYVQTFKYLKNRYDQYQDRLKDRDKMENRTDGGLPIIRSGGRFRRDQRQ

T5: GST-tagged full-length CENP-C (Drosophila melanogaster) (UniProt Q9VHP9)
T5 sequence: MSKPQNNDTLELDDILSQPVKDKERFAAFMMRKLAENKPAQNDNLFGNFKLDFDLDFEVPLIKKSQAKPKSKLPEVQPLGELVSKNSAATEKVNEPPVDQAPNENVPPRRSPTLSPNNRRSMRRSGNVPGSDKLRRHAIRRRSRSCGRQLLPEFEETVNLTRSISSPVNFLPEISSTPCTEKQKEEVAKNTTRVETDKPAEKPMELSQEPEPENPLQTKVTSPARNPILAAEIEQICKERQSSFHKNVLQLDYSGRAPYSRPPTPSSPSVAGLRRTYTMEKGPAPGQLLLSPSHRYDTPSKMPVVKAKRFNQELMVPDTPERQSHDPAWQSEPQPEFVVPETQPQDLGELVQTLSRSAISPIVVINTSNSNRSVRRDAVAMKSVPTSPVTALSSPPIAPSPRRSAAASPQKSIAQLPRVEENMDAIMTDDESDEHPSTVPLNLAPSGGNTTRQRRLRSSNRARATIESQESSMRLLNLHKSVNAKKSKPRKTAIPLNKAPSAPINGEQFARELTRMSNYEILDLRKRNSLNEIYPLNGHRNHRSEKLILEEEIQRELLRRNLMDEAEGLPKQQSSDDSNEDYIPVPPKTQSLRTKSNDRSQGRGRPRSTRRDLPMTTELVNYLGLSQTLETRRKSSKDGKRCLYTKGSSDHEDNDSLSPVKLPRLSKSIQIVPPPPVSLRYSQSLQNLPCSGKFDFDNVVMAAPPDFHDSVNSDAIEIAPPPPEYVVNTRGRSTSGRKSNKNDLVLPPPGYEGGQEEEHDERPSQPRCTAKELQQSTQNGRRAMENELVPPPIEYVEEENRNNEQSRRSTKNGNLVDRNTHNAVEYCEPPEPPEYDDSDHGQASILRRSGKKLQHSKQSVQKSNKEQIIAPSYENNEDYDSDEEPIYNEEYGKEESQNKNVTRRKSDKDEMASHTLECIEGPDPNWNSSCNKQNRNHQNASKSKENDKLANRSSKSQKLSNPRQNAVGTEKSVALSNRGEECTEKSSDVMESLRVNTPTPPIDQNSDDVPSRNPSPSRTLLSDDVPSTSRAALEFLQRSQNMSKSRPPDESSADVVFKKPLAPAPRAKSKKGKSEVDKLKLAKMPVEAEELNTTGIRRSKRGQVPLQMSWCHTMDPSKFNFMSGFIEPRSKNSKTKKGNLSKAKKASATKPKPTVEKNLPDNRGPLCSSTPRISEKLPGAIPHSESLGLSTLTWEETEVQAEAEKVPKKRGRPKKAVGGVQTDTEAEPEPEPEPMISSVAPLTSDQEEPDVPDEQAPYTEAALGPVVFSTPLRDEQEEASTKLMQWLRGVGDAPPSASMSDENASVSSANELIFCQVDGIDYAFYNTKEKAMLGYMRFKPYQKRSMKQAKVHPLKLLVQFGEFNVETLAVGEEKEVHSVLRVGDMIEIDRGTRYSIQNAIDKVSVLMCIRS


Tests used:
Experiment in all cases: pull-down; GST-tagged bait on Glutathione Sepharose 4b, IVTT 35S-Met-labelled prey, 1 h 25 °C, 50 mM HEPES pH 7.4, 150 mM NaCl, 0.1% Triton X-100, 0.5 mg/ml BSA; autoradiography; only the target purified
[1] = target: T1, GST-tagged Flfl^N (aa 1–361) (Drosophila melanogaster)
[2] = target: T2, GST-tagged Flfl^169–361 (aa 169–361) (Drosophila melanogaster)
[3] = target: T3, GST-tagged Flfl^1–168 (aa 1–168) (Drosophila melanogaster)
[4] = target: T4, GST-tagged Flfl^M (aa 362–666) (Drosophila melanogaster)
[5] = target: T5, GST-tagged full-length CENP-C (Drosophila melanogaster)

binding [1] | binding [2] | binding [3] | binding [4] | binding [5] | Binder
binds | no binding | binds | – | – | ^35S-Met-labelled CENP-C^FBD (IVTT) (domain or fragment, UniProt Q9VHP9 1002-1093, 35S-methionine labelled) IDQNSDDVPSRNPSPSRTLLSDDVPSTSRAALEFLQRSQNMSKSRPPDESSADVVFKKPLAPAPRAKSKKGKSEVDKLKLAKMPVEAEELNT
binds | – | – | no binding | – | ^35S-Met-labelled full-length CENP-C (IVTT) (protein, UniProt Q9VHP9 1-1411, 35S-methionine labelled) MSKPQNNDTLELDDILSQPVKDKERFAAFMMRKLAENKPAQNDNLFGNFKLDFDLDFEVPLIKKSQAKPKSKLPEVQPLGELVSKNSAATEKVNEPPVDQAPNENVPPRRSPTLSPNNRRSMRRSGNVPGSDKLRRHAIRRRSRSCGRQLLPEFEETVNLTRSISSPVNFLPEISSTPCTEKQKEEVAKNTTRVETDKPAEKPMELSQEPEPENPLQTKVTSPARNPILAAEIEQICKERQSSFHKNVLQLDYSGRAPYSRPPTPSSPSVAGLRRTYTMEKGPAPGQLLLSPSHRYDTPSKMPVVKAKRFNQELMVPDTPERQSHDPAWQSEPQPEFVVPETQPQDLGELVQTLSRSAISPIVVINTSNSNRSVRRDAVAMKSVPTSPVTALSSPPIAPSPRRSAAASPQKSIAQLPRVEENMDAIMTDDESDEHPSTVPLNLAPSGGNTTRQRRLRSSNRARATIESQESSMRLLNLHKSVNAKKSKPRKTAIPLNKAPSAPINGEQFARELTRMSNYEILDLRKRNSLNEIYPLNGHRNHRSEKLILEEEIQRELLRRNLMDEAEGLPKQQSSDDSNEDYIPVPPKTQSLRTKSNDRSQGRGRPRSTRRDLPMTTELVNYLGLSQTLETRRKSSKDGKRCLYTKGSSDHEDNDSLSPVKLPRLSKSIQIVPPPPVSLRYSQSLQNLPCSGKFDFDNVVMAAPPDFHDSVNSDAIEIAPPPPEYVVNTRGRSTSGRKSNKNDLVLPPPGYEGGQEEEHDERPSQPRCTAKELQQSTQNGRRAMENELVPPPIEYVEEENRNNEQSRRSTKNGNLVDRNTHNAVEYCEPPEPPEYDDSDHGQASILRRSGKKLQHSKQSVQKSNKEQIIAPSYENNEDYDSDEEPIYNEEYGKEESQNKNVTRRKSDKDEMASHTLECIEGPDPNWNSSCNKQNRNHQNASKSKENDKLANRSSKSQKLSNPRQNAVGTEKSVALSNRGEECTEKSSDVMESLRVNTPTPPIDQNSDDVPSRNPSPSRTLLSDDVPSTSRAALEFLQRSQNMSKSRPPDESSADVVFKKPLAPAPRAKSKKGKSEVDKLKLAKMPVEAEELNTTGIRRSKRGQVPLQMSWCHTMDPSKFNFMSGFIEPRSKNSKTKKGNLSKAKKASATKPKPTVEKNLPDNRGPLCSSTPRISEKLPGAIPHSESLGLSTLTWEETEVQAEAEKVPKKRGRPKKAVGGVQTDTEAEPEPEPEPMISSVAPLTSDQEEPDVPDEQAPYTEAALGPVVFSTPLRDEQEEASTKLMQWLRGVGDAPPSASMSDENASVSSANELIFCQVDGIDYAFYNTKEKAMLGYMRFKPYQKRSMKQAKVHPLKLLVQFGEFNVETLAVGEEKEVHSVLRVGDMIEIDRGTRYSIQNAIDKVSVLMCIRS
– | – | – | – | no binding | ^35S-Met-labelled PP4c (IVTT) (enzyme, UniProt O76932 1-307, 35S-methionine labelled) MSDYSDLDRQIEQLKRCEIIKENEVKALCAKAREILVEEGNVQRVDSPVTVCGDIHGQFYDLKELFKVGGDVPEKNYLFMGDFVDRGYYSVETFLLLLALKVRYPDRITLIRGNHESRQITQVYGFYDECLRKYGSTAVWRYCTEIFDYLSLSAIIDGKIFCVHGGLSPSIQYLDQIRSIDRKQEVPHDGPMCDLLWSDPEDQTGWGVSPRGAGYLFGSDVVSQFNRTNDIDMICRAHQLVMEGFKWHFNETVLTVWSAPNYCYRCGNVAAILELNEYLHRDFVIFEAAPQESRGIPSKKPQADYFL
